# Source: publication PMC4336329 (PLoS ONE, 2015)
# Screen size: about 310,000 compounds; about 14,000 (4.5%) showed an effect of 50% or more. Effects have a minus sign here. This is one part of the list.
# Molecular target: human ether-à-go-go-related gene (hERG) potassium channel (human, UniProt Q12809)
# Experiment: primary screen, population patch clamp on CHO cells stably expressing hERG
# 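Further: peak tail current of the secondary pulse compared with the same well before compound.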
# human ether-à-go-go-related gene (hERG) potassium channel, sequence (Q12809 whole entry, looked up): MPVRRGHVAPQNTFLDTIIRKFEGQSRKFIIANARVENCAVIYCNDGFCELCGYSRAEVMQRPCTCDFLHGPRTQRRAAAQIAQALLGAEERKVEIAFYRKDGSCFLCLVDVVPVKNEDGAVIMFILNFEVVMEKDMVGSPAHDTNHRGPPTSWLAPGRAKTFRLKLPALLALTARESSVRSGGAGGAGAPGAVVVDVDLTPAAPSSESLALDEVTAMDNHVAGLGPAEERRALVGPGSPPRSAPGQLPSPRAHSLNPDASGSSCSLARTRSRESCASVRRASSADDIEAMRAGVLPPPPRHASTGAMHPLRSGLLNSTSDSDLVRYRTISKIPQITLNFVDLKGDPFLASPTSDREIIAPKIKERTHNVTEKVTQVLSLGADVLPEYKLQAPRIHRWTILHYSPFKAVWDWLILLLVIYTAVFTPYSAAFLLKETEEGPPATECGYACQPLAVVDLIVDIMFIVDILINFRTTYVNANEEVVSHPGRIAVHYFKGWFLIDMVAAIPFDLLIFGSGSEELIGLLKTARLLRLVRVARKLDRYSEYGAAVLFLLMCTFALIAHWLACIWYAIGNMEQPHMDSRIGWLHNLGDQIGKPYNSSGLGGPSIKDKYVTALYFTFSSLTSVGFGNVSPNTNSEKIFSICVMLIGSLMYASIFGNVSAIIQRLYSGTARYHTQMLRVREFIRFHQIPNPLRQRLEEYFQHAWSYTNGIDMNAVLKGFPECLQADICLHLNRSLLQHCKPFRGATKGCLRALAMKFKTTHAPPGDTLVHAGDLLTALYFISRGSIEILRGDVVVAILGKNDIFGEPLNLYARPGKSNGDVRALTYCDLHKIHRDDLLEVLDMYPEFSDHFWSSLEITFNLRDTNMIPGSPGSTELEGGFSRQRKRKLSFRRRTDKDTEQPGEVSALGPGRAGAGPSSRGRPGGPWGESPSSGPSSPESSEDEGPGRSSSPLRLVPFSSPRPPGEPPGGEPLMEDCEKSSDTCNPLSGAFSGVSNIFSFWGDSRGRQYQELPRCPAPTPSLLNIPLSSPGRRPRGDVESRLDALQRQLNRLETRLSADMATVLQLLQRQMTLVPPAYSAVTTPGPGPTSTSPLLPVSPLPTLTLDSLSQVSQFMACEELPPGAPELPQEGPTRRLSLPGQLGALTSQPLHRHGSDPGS
row,SMILES,"hERG current change (%, negative = inhibition) at 10uM [%]"
1,CCN(CC)C(=O)COc1ccc(/C=C(\C#N)S(=O)(=O)c2ccccc2)cc1OC,-21
2,CC(CCOS(N)(=O)=O)c1ccccc1 (centres unmarked),8.14
3,O=C(NC(=S)NCCCN1CCOCC1)c1ccco1,-4.11
4,COc1ccc(NC(=S)NNc2ccc(S(=O)(=O)Nc3ccccc3C(=O)O)cc2[N+](=O)[O-])cc1,13.7
5,COc1cccc(-c2cc3nc(-c4ccccc4)cc(=O)n3[nH]2)c1,-1.31
6,CCCCC(=O)Nc1sc2c(c1C(=O)OCC)CCC(C=O)=C2Cl,10.7
7,O=C(Nc1ccc(Cl)c(Cl)c1)N1CCCCCC1,2.82
8,S=C(Nc1ccccc1)N(Cc1ccccc1)Cc1ccncc1,-46.6
9,O=C(NC1CCCCCC1)c1c(O)nc2sccn2c1=O,-22.8
10,COC(=O)C(C#N)C(c1cccnc1)c1c(C)[nH][nH]c1=O (centres unmarked),11.1
11,Cc1cc(=O)[nH]c(SCC(=O)Nc2cccc(C(F)(F)F)c2)n1,-7.63
12,CCOc1ccc2[nH]cc(-c3csc(N)n3)c2c1,23.8
13,O=C(NCc1cccs1)C1CCCN1C(=O)Nc1ccc(Cl)cc1 (centres unmarked),33.9
14,COc1cccc(NC(=O)CN2C(=O)NC3(CCCC3)C2=O)c1,12.3
15,O=C(Nc1ccc(/C=C/c2nc3ccccc3o2)cc1)c1c(F)cccc1F,1.43
16,CCN(CC)CCCNC(=O)CC1Sc2ccccc2NC1=O (centres unmarked),-4.33
17,CC(NC(=O)c1sc2ccccc2c1Cl)C1CCCO1 (centres unmarked),-16.4
18,C=CCSc1nsc(NC(=O)Nc2cccc(C(C)=O)c2)n1,10.9
19,CN(Cc1ccsc1)C(=O)CCc1nnc(Cc2c[nH]c3ccccc23)o1,0.146
20,O=c1[nH]c(=O)n(C2CCCCC2)c(O)c1/C=N/N1CCCCC1c1cccnc1 (centres unmarked),-13.6
21,CC(=O)Oc1ccc(C2=NN(c3ccccc3)C(c3ccccc3)C2)cc1 (centres unmarked),15.9
22,Cc1ccc(C(=O)CC(Nc2ccc(F)cc2)c2ccccc2)cc1 (centres unmarked),1.54
23,O=c1nc2n(c3ccc([N+](=O)[O-])cc13)CCCCC2,-15.4

row,SMILES,"hERG current change (%, negative = inhibition) at 10uM [%]"
1,CSCc1nc2sc(C(=O)Nc3nc(C)cs3)c(C)c2c(=O)[nH]1,-7.48
2,COCCOC(=O)C1=C(C)NC2=C(C(=O)CC(C)(C)C2)C1c1ccc2c(c1)OCO2 (centres unmarked),-11.8
3,Cc1cc(N)ccc1NC(=O)c1ccccc1,12.4
4,COc1ccc(NC(=O)c2nc[nH]c2C(=O)Nc2ccccc2C)cc1,5.48
5,CC(=O)Nc1ccc(NC(=O)COC(=O)c2ccccc2C(=O)c2ccccc2)cc1,-12.8
6,O=C(O)Cn1c(=O)n(Cc2ccccc2)c2ccccc21,23.4
7,O=C(CCN=C1NS(=O)(=O)c2ccccc21)OCC(=O)c1ccc(F)c(F)c1,11
8,COc1ccc(Nc2nc(NCc3ccco3)nc(N/N=C/c3ccccc3Cl)n2)cc1,-10.6
9,CC(C)c1ccccc1NC(=O)C1C2C=CC(C2)C1C(=O)O (centres unmarked),9.85
10,O=S(=O)(c1cccc(C(F)(F)F)c1)N1CCN(C(=S)NCc2ccco2)CC1,-5.8
11,O=C(NCc1ccc(F)cc1)c1cc(-c2ccco2)on1,9.8
12,CCOC(=O)C1CCCN(C2CC(=O)N(c3cccc(C)c3)C2=O)C1 (centres unmarked),-8.58
13,CCN(CC)Cc1c(O)ccc2c(=O)c(Oc3ccccc3OC)coc12,8.08
14,CCOC(=O)C1(Cc2ccc(Cl)cc2)CCN(Cc2cnc(N)nc2)CC1,-74.7
15,COC(=O)CN1C(=O)[C@H]2[C@@H](c3ccc(C)o3)N3C(=O)CN(Cc4ccccn4)C(=O)[C@@]3(Cc3ccccc3)[C@H]2C1=O,21.5
16,Oc1ccc(NC(=S)Nc2ccc(F)cc2)cc1,3.14
17,CCn1c(SCC(=O)NC2CC2)nnc1-c1ccc(F)cc1,8.99
18,O=C1CCC(C(=O)N2CCSCC2)CN1Cc1cccc(C(F)(F)F)c1 (centres unmarked),-0.468
19,CCOC(=O)C1=NOC(CNC(=O)c2ccccc2Cl)C1 (centres unmarked),9.33
20,Cc1ccc(S(=O)(=O)/N=C(/Sc2ccccc2C(=O)O)c2ccccc2)cc1,17.6
21,COCCNC(=O)[C@@H]1CSC2c3ccc(OC)c(OC)c3C(=O)N21 (some centres unmarked),21.3
22,O=C(Nc1ccccc1-c1nnn(CC(=O)N2CCOCC2)n1)c1ccccc1F,-10.2
23,CCSc1nnc(NC(=O)CSc2nnc(-c3c[nH]c4ccccc34)n2C)s1,7.98

row,SMILES,"hERG current change (%, negative = inhibition) at 10uM [%]"
1,COc1ccc(N(C(C)C(=O)N/N=C/c2ccc(OC)c(OC)c2)S(C)(=O)=O)cc1 (centres unmarked),5.24
2,CCC(C)NC(=O)C1CCCN(S(=O)(=O)c2ccc(-n3cnnn3)cc2)C1 (centres unmarked),-6.39
3,OCCN1CCN(c2ncnc3sc4c(c23)CCCC4)CC1,-12.2
4,Cc1ccccc1OCC(=O)Nc1cc(S(=O)(=O)N2CCOCC2)ccc1N1CCCC1,-28
5,Nc1ccc(S(=O)(=O)Nc2nccc(/C=C/c3ccc([N+](=O)[O-])cc3)n2)cc1,9.52
6,O=C(/C=C/c1ccc2c(c1)OCO2)NCCSCc1c(Cl)cccc1Cl,0.181
7,CSc1nnc(C)c(=O)n1COC(=O)c1ccc([N+](=O)[O-])cc1,-30.8
8,COc1cc(C)nc(Oc2ccc(/C=N/O)cc2)n1,13.9
9,CCOCc1nnc(NC(=O)c2ccc3c(c2)OCO3)s1,-10.9
10,COc1cc(C(=O)N/N=C/C2CC=CCC2)cc(OC)c1OC (centres unmarked),-7.28
11,CCOC(=O)c1cccc(N/C=C/C(=O)c2ccc(OC)c(OC)c2)c1,14.4
12,CCOC(=O)N1CCN(C(=O)c2ccc(N(Cc3ccccc3)S(C)(=O)=O)cc2)CC1,-10.2
13,CCOC(=O)C1CCCN(C(=O)c2cc3nc(-c4ccc5c(c4)OCO5)cc(C(F)(F)F)n3n2)C1 (centres unmarked),-0.76
14,CC(=O)N(Nc1ccccc1)c1ccccc1,16.4
15,O=C(Nc1cccnc1)c1ccc(F)cc1,12.4
16,CCOC(=O)C1CCCN(S(=O)(=O)c2ccc(S(=O)(=O)N3CCCC3)cc2)C1 (centres unmarked),1.58
17,COc1ccc(CNC(=O)c2cc3c(s2)CN(Cc2ccccc2)C3)cc1.Cl,-44.2
18,CSCCC(NC(N)=O)C(=O)Nc1cccc(S(=O)(=O)N2CCOCC2)c1 (centres unmarked),19.2
19,CC1CCC(NC(=O)CN2C(=O)COc3ccc(S(=O)(=O)N4CCCC4)cc32)CC1 (centres unmarked),-7.33
20,Cc1cc(C)nc(-n2ncc3c2CC(c2cccc(Cl)c2)CC3=O)n1 (centres unmarked),0.128
21,CC1CN(C(=O)c2cccc(COc3ccc(Br)cc3)c2)CC(C)O1 (centres unmarked),-37.6
22,Cc1nc(C)c(CC(=O)N2CCc3c([nH]c4ccccc34)C2c2ccccn2)s1 (centres unmarked),-7.41
23,Cc1cc(C2CC(=O)Nc3ccccc3S2)c(C)s1 (centres unmarked),-8.4

row,SMILES,"hERG current change (%, negative = inhibition) at 10uM [%]"
1,Cc1cc(C(=O)NCC(c2ccco2)N(C)C)no1 (centres unmarked),8.04
2,CCN(CC)S(=O)(=O)c1ccc(C)c(NC(=O)CN2CCN(C)CC2)c1.O=C(O)C(=O)O,-12.4
3,CCOC(=O)C1(CCCc2ccccc2)CCN(C(=O)c2cncs2)CC1,-55
4,CCc1ccc(NC(=S)N(CCN2CCCCC2)Cc2ccco2)cc1,-75.4
5,CCCC(c1nnnn1Cc1ccc(OC)cc1)N1CCN(c2ccccc2OC)CC1 (centres unmarked),-8.59
6,O=C1C(Nc2cccc(O)c2)=C(N2CCCCC2)C(=O)c2ccccc21,-3.89
7,Cc1cc(/C=C2\C(=O)NC(=O)N(c3cccc(Br)c3)C2=O)c(C)n1C,0.841
8,N#CC(C(=O)c1ccccc1Cl)=C1SCCCS1,-30
9,O=C(c1ccco1)N1CCN(C(=O)c2cc(=O)[nH]c3ccccc23)CC1,12.6
10,O=C(CSc1ccccn1)Nc1ccccc1F,-15.5
11,CCOc1ncccc1C(=O)N1CCN(C(c2ccccc2)c2ccccc2)CC1,5.75
12,COc1ccc(CC(C)CC(=O)NCCc2ccc(OC)c(OC)c2)cc1 (centres unmarked),18.9
13,Cc1cc(N2CCN(c3ccccc3Cl)CC2)n2cc(-c3ccccc3)nc2n1,-53.9
14,COC(=O)c1ccc(C2N=C(c3cccs3)CC(c3ccccc3O)N2)cc1 (centres unmarked),13
15,Cc1cc(C)cc(N(CCC(=O)Nc2nnc(C3CC3)s2)S(=O)(=O)c2ccc(Cl)cc2)c1,4.63
16,COC(=O)c1ccc(SCc2ccccc2)nc1,15.2
17,CCOC(=O)C(C)N1C(=O)S/C(=C/c2cc(C)n(-c3ccccn3)c2C)C1=O (centres unmarked),-0.671
18,COc1ccc2ccc(=O)oc2c1,-2.62
19,COc1ccc(C(=O)N/C(=C\c2ccccc2)C(=O)N2CCOCC2)cc1,-8.27
20,Cc1cc(C)nc(NC(C)(C)C(=O)O)n1,14.6
